Source: the supplement of paper PMC3334620
The full ranking holds about 33,000 sequences; the median of “E-score (-0.5 to 0.5)” is about -0.041, and the highest 2% start at about 0.37. This is one part of the list.

target: T1, Ecm22 (UniProt Q05958); test: PBM E-score (8-mer binding enrichment) (E-score (-0.5 to 0.5)); higher = stronger / more preferred TF binding; most listed sequences are background and not binding sites; settings: protein concentration: 200 nM; construct: GST-full length
T1 sequence: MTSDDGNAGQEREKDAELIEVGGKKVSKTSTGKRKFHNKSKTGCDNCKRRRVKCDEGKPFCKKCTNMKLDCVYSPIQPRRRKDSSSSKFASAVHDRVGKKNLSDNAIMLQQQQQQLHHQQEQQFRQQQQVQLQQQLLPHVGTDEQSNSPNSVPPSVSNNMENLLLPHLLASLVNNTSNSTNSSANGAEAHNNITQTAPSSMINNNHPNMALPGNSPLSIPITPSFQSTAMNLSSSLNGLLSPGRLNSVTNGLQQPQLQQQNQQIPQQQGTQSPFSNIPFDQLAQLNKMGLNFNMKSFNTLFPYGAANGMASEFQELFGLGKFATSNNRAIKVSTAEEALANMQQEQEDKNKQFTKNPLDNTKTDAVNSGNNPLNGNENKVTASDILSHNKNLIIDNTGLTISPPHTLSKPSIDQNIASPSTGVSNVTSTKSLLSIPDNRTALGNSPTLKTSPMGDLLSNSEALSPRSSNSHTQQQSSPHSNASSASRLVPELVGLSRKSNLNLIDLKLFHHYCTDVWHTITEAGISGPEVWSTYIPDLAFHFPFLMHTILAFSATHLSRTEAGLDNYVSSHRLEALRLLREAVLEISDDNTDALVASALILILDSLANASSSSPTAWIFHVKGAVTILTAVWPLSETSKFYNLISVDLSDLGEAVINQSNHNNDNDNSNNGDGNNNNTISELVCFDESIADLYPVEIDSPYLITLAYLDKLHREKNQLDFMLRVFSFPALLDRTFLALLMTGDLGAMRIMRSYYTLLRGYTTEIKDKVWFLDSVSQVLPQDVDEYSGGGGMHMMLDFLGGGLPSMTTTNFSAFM
How it was run: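 Universal all-10-mer Agilent arrays, double-stranded by primer extension on fresh or once-stripped slides, were probed with about 100-200 nM GST-tagged yeast transcription factors made by PURExpress. Fluorescent anti-GST detected bound protein, and masliner normalised the scans. E-scores from the Universal PBM Analysis Suite were given to each ungapped eight-base word pooled with its reverse complement.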

Row | Sequence | PBM E-score
1 | ATTTATCC | 0.179
2 | AGAACCCG | -0.0503
3 | TAAAATTA | 0.00698
4 | CACATAGA | -0.0996
5 | GGCGTGGA | -0.314
6 | ACAGATCA | -0.064
7 | CACTCTCA | 0.00852
8 | GAAATTAA | 0.0587
9 | AAGGTCCT | -0.142
10 | AGACAGGC | -0.116
11 | ATACACGA | 0.247
12 | AATCGAGT | 0.0277
13 | CATACATA | 0.0448
14 | AATAACGA | 0.175
15 | CGATACCC | 0.162
16 | AGTGTTCG | 0.164
17 | CCACCACC | -0.103
18 | AATTGAAT | -0.171
19 | CGTGCACG | -0.00076
20 | GTGACCCA | -0.234
21 | CTACCACC | -0.17
22 | ATCCGCGG | -0.0486
23 | CGACCACC | 0.0539
24 | ATAATAGA | -0.0198
25 | GATGTTTA | -0.0275

Row | Sequence | PBM E-score
26 | TACATCGA | 0.12
27 | ATCGGGTA | 0.0498
28 | CTTACGCC | 0.0486
29 | CCAGTTCG | 0.0201
30 | AGGAATCC | -0.221
31 | CCTGCGCA | -0.168
32 | GCCTAAAA | -0.211
33 | ATCGAAAC | 0.142
34 | GTACCAAC | 0.227
35 | CAGGCCCA | -0.124
36 | ACGCTGAC | 0.0435
37 | CCGTCCTA | -0.265
38 | ACAGCTAT | -0.0388
39 | ACGCGTTG | 0.0889
40 | GCTGTTAA | 0.0716
41 | CAGTGACG | -0.143
42 | CGTGTGAG | -0.0263
43 | CATCGACC | -0.15
44 | GAATGATA | 0.175
45 | ACGGCACT | 0.0515
46 | AAAACTCA | -0.0877
47 | AAGCAATT | -0.235
48 | AGATGTGA | 0.0744
49 | GCATTTTA | -0.00685
50 | TATGAAGA | -0.0483

Row | Sequence | PBM E-score
51 | CAGGAGGC | -0.207
52 | GCCATCGA | -0.036
53 | CACGAGGC | 0.171
54 | CGGCAAAA | -0.156
55 | GCAAAAGC | -0.0503
56 | CGGTCGTA | 0.464
57 | CAAGGTAG | -0.155
58 | ACGAGGCA | 0.401
59 | GGGGTCCA | -0.215
60 | ATCTAAAT | 0.164
61 | CTTCGGTC | 0.225
62 | CTTTCGCA | 0.00706
63 | AACTAAAC | 0.24
64 | CGCCGGAG | 0.172
65 | CCATAGTA | -0.0616
66 | AGTGAACG | 0.267
67 | CTGCTACC | -0.188
68 | ATCGTGAC | 0.106
69 | ATTCTCGA | 0.168
70 | GCTTAGTA | -0.0609
71 | CAATTACC | 0.00312
72 | AGAGGCCC | -0.171
73 | ATTTTATC | 0.0997
74 | AGCGATTC | 0.12
75 | GAGGTTAA | -0.246

Row | Sequence | PBM E-score
76 | GCCAACCC | -0.243
77 | ACTCCTTG | -0.0589
78 | ACGCTACC | -0.163
79 | AAATACGA | 0.451
80 | CGCTGGCA | -0.199
81 | AGGGATTC | -0.0618
82 | CAGCATCG | -0.0422
83 | CCATATGC | 0.137
84 | CCTATTAG | -0.339
85 | CCCCATAA | -0.312
86 | GAAATGAC | -0.0886
87 | AATATGCG | 0.229
88 | AAGCCCTG | -0.243
89 | AATTTTGC | 0.0283
90 | GCAGGACC | -0.107
91 | CCCATTCG | 0.0416
92 | GCCGGAGC | -0.0845
93 | GTTTCCGA | 0.238
94 | CCACTATA | 0.111
95 | TAGAAATA | 0.0152
96 | TGGTCGAA | -0.197
97 | AGTGAACA | -0.0214
98 | CGCTTTAG | 0.0766
99 | GTTGTTGA | 0.00174
100 | GATTTGTA | -0.133

Row | Sequence | PBM E-score
101 | AGAATGCC | -0.236
102 | ACGGATAG | 0.116
103 | GGAACTGA | 0.108
104 | CAGCGTCG | 0.0918
105 | ACGGCCGA | 0.174
106 | CGCTTCTC | 0.0567
107 | GACTAATA | 0.0348
108 | CCAGAGCC | -0.0732
109 | ATGTAAGG | -0.194
110 | CTGGCCAC | -0.338
111 | ACCTGTCC | -0.171
112 | GATCTATA | 0.143
113 | CAAACCCG | 0.0549
114 | AGTTAGCC | -0.0838
115 | CTCTTCTC | -0.216
116 | CCCAGGCG | -0.177
117 | ACTTGCTC | -0.147
118 | CATTCACA | -0.125
119 | ACCATAAT | -0.00969
120 | CATGTTTA | 0.0358
121 | CACAGTGA | -0.0973
122 | AACGGTTC | 0.177
123 | CATGTGGG | -0.247
124 | AAAGACAA | -0.105
125 | ACCTGTTC | 0.0849

Row | Sequence | PBM E-score
126 | ACACCATC | -0.296
127 | AGCACAAT | -0.0457
128 | GTAATAAA | 0.191
129 | CCGGCAAA | -0.0597
130 | GTCAGTTA | -0.198
131 | ACCGACGT | 0.329
132 | GCACGTTA | 0.0282
133 | ATCTACTG | 0.00504
134 | GGCACGAC | 0.032
135 | AAGATTGG | -0.0014
136 | AAATTCTG | -0.0343
137 | CAACTTCC | 0.0673
138 | ACCTAGTG | -0.194
139 | CACAGCTC | -0.158
140 | AGAGACTA | -0.0518
141 | AGTTTGCA | -0.0381
142 | GCGCCATA | -0.118
143 | AAATGCAG | -0.117
144 | TCTTGCCA | -0.185
145 | TCAGGGAA | 0.0165
146 | CGTCGTAA | 0.446
147 | AATGGGTC | -0.146
148 | CACAGATC | -0.136
149 | CCGATCCC | -0.0441
150 | AATCAGGA | -0.124

Row | Sequence | PBM E-score
151 | AGCTGCCC | -0.0461
152 | AGCGTAGA | -0.0994
153 | ATAAGTGA | -0.0231
154 | GCCAATAC | 0.0426
155 | ATCACATG | -0.0392
156 | ACAACGGA | 0.00212
157 | GACCCGCC | 0.0114
158 | CTGATCCC | -0.0594
159 | CTACATAG | -0.114
160 | CCCCTCGG | 0.266
161 | AGATGGCT | -0.169
162 | AAGCTCAC | -0.0834
163 | ACCACGAC | 0.00538
164 | ATTCATTG | -0.00988
165 | GCTTGCGA | 0.161
166 | CAAAATGG | -0.128
167 | CCCGAACG | 0.274
168 | AGCGCTTC | -0.0209
169 | ACCCGGGT | -0.0402
170 | CACTTGGG | -0.376
171 | TAACGGAA | 0.102
172 | ACATGGTG | -0.0868
